Measured values reported in paper PMC4336329 (PLoS ONE, 2015).
About 14,000 (4.5%) of roughly 310,000 compounds showed an effect of 50% or more. The effect is printed as a negative number. This is one part of the list.

Target: human ether-à-go-go-related gene (hERG) potassium channel (human, UniProt Q12809)
Test: primary screen, population patch clamp on CHO cells stably expressing hERG
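Further: peak tail current of the secondary pulse compared with the same well before compound.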

human ether-à-go-go-related gene (hERG) potassium channel, sequence (Q12809 whole entry, looked up): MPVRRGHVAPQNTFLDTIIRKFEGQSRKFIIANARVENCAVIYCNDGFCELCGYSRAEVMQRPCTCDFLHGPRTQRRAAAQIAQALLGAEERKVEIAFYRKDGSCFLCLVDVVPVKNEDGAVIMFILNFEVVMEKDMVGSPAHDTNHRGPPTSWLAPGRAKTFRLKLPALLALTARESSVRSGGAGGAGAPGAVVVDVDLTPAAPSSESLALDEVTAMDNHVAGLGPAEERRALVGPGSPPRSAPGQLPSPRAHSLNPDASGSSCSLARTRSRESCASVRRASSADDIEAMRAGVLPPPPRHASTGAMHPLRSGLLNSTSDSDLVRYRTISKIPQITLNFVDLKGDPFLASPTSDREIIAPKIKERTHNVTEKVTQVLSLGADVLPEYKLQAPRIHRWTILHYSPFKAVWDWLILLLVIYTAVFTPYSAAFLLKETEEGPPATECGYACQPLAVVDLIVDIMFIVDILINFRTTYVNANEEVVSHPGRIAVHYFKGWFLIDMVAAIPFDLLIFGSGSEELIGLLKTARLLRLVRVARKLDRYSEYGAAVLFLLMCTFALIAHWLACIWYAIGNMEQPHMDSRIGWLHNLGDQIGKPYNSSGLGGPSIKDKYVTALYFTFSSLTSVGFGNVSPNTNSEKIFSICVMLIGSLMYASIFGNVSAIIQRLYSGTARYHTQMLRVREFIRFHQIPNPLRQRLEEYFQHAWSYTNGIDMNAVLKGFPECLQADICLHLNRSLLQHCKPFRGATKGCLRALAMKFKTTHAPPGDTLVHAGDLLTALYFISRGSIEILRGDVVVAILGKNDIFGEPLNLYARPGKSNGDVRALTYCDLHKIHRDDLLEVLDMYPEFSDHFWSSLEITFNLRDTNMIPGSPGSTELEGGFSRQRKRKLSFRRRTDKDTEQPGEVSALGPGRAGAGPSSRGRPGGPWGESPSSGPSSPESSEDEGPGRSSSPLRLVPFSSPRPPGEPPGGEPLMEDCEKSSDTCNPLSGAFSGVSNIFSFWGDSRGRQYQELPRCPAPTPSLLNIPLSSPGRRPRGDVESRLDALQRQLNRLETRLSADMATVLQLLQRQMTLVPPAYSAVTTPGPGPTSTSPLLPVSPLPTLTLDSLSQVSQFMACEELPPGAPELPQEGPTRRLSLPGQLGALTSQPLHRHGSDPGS

| SMILES | hERG current change (%, negative = inhibition) at 10uM [%] |
| --- | --- |
| CCn1nnc2cc(C(=O)NCCc3ccccc3F)ccc21 | -16.7 |
| COc1ccc2cnn(CCOc3cc(C)ccc3C(C)C)c(=O)c2c1OC | -9.59 |
| Nc1cc(-c2ccccc2)nn1Cc1ccc(Cl)cc1 | -19 |
| COC(=O)c1cn(Nc2ncc(C(F)(F)F)cc2Cl)c(=O)c2ccccc12 | 0.104 |
| COc1cc(/C=C/C(=O)O)cc(S(=O)(=O)NCCCO)c1OC | 6.81 |
| COc1ccc(C(=O)NNS(=O)(=O)c2ccc(OC)cc2)cc1 | 2.62 |
| O=c1cnc2ccccc2n1CC1CCCCC1 | 0.812 |
| Cc1ccc(C(=O)NNC(=O)Cn2nnc3ccccc32)cc1 | 13.3 |
| COc1ccc(NC(=O)N2CCN(c3nc(-c4cccc(OC)c4)cs3)CC2)cc1 | -0.729 |
| COc1ccc2[nH]c3c(=O)n4c(nc3c2c1)SCC4 | 6.11 |
| CNC(=O)/C(C#N)=C1/SC(Cc2ccc(F)cc2)C(=O)N1c1ccccc1 (stereo not drawn) | 7.53 |
| c1ccc(COC2CCCN(Cc3nc(Cc4ccccc4)no3)C2)cc1 (stereo not drawn) | -0.814 |
| Cc1ccc2cccc(OCC(=O)c3cc(C)n(Cc4ccco4)c3C)c2n1 | 8.98 |
| Clc1ccccc1Cn1nnc(-c2cccs2)n1 | 4.89 |
| CC1=CC(C)(C)NC(=S)N1NC(=O)c1ccccc1Cl | 0.742 |
| COC(=O)C1=CN(C(C)C)C=C(C(=O)OC)C1c1cc(Br)c(OC)c(OC)c1 | -12.7 |
| COc1ccc(/C=C/C(=O)c2cccc(-n3cnnn3)c2)cc1O | 13.5 |
| Clc1cc(Cl)c2nc(N3CCCCC3)sc2c1 | 8.96 |
| CCn1c(SCC(=O)c2ccc(F)cc2)nnc1-c1ccoc1C | -10.4 |

| SMILES | hERG current change (%, negative = inhibition) at 10uM [%] |
| --- | --- |
| COc1nc(Nc2ccc(C(C)C)cc2)nc(OC)n1 | -20 |
| CCc1nc(SCC(=O)Nc2cc(OC)ccc2OC)c2c(C)c(C)sc2n1 | 3.63 |
| O=C(/C=C/c1ccccc1)NC1CCS(=O)(=O)C1 (stereo not drawn) | 18.1 |
| CCC(C)c1c(O)nc(SCC(=O)N2CCCCCC2)[nH]c1=O (stereo not drawn) | 26.4 |
| CC(=O)O[C@H](COc1c2ccoc2cc2oc(=O)ccc12)C(C)(C)O.O | -6.92 |
| Cc1ccsc1/C=N/NC(=O)CC(=O)NCC(C)C | 21.2 |
| CCOC(=O)N1CCC(NC(=O)Cn2cc3c(n2)CCCCC3)CC1 | 9.89 |
| C/C(=N\NC(N)=S)c1ccncc1 | 8.91 |
| Cc1nc2ccccc2c(=O)n1-c1ccc(Cl)cc1[N+](=O)[O-] | 10.1 |
| CC(C)CCN1CCN(CCCn2cccn2)CC1CCO (stereo not drawn) | -6.72 |
| CCC(CC)C(=O)Nc1nnc(CCc2ccccc2)s1 | -1.88 |
| CNc1nnc(Sc2ncccc2[N+](=O)[O-])s1 | 18.5 |
| COc1ccc2nc3oc(C(=O)N4CCN(c5cccc(C(F)(F)F)c5)CC4)cc3cc2c1 | 12.5 |
| O=C(NCc1cccnc1)/C(=C/c1ccc(Cl)cc1)NC(=O)c1ccccc1 | -68.5 |
| COC(=O)C1=C(N)Oc2cc(C)[nH]c(=O)c2C1c1ccccc1OC (stereo not drawn) | 9.48 |
| OC/C(Br)=C(\Br)CO | 12.1 |
| COc1ccc(N2CCN(CCCNC(=O)C(=O)c3c(C)[nH]c4ccccc34)CC2)cc1 | -53.3 |
| COc1cccc(OC)c1C(=O)Nc1cccc(-c2ccc3nncn3n2)c1 | 5.17 |
| CN(C)S(=O)(=O)c1ccc(N2CCCC2)c(C(=O)Nc2ccc(C(N)=O)cc2)c1 | -30.9 |

| SMILES | hERG current change (%, negative = inhibition) at 10uM [%] |
| --- | --- |
| O=C(Cn1ccc(C(F)(F)F)n1)N=Nc1c(O)[nH]c2ccccc12 | 1.25 |
| CSCCC(NC(=O)c1ccccc1Cl)C(=O)N(C)CC(=O)Nc1ccc(N2CCOCC2)cc1 (stereo not drawn) | 5.2 |
| CCOC(=O)c1sc2nc(CSc3ccccc3)nc(N3CCCN(C)CC3)c2c1C.O=C(O)C(=O)O | -70 |
| COc1ccc(-c2coc3cc4oc(=O)cc(C)c4cc23)cc1F | 1.52 |
| Nn1c(SCC(=O)Nc2ccccc2)nnc1-c1cccnc1 | -0.632 |
| c1ccc(C(c2ccccc2)c2noc(CN3CCC(c4ccncc4)CC3)n2)cc1 | -32.7 |
| C=CCO/N=C(/C)c1c(O)c(CC)c(-c2ccccc2)n(-c2ccccc2)c1=O | -8.37 |
| Cc1ccc(CNC(=O)C2CCN(C(=O)Nc3ccccc3)CC2)cc1 | -16.3 |
| CCn1c2ccccc2c2cc(NC(=O)C(C)Oc3ccc(OC)cc3)ccc21 (stereo not drawn) | 19.9 |
| Cc1c(CCC(=O)N2CCC[C@H]2C(=O)O)c(=O)oc2c(C)c3oc4c(c3cc12)CCCC4 | 35.3 |
| CCN(CC)C(=O)CCSc1nnc(-c2ccncc2)o1 | -2.01 |
| O=C(Nc1ccnn1C1CCN(Cc2ccc(CO)o2)CC1)c1ccc2c(c1)OCO2 | 5.11 |
| O=C(CSCc1ccccc1Br)N/N=C/c1ccc(OCC(=O)N2CCCCC2)cc1 | -15.9 |
| CC(=O)c1cccc(NC(=O)c2cc3ccccn3n2)c1 | -14.6 |
| O=C(CN1CCCCC1)Nc1ccccc1-c1ccccc1 | -9.07 |
| CCOc1ccccc1NC(=O)CN(C)S(=O)(=O)c1ccc2[nH]c(=O)oc2c1 | -5.16 |
| CC(=O)C1=C(O)C(=O)N(c2ccc(S(N)(=O)=O)cc2)C1c1ccc([N+](=O)[O-])cc1 (stereo not drawn) | 7.52 |
| COCCNc1ccnc2c(Cl)cccc12 | -81.9 |
| Cc1nn(CC(=O)NC2(C#N)CCCCC2)c(C)c1[N+](=O)[O-] | 3.09 |
